Laboratory results taken from publication PMC12040169 (PLOS Biology, 2025).
The other results are listed elsewhere or left out.

Tested on: T1, C. trachomatis L2/434/Bu expressing GFP (CTL2-GFP)
T1 construct: L2/434/Bu GFP intracellular growth in HeLa cells
Set-up: species or system HeLa; C. trachomatis total inclusion area by high-content imaging, normalised to DMSO
Conditions: total inclusion area; 28.5 h, 10 µM; inhibitor
In short: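 Bulk GFP and resorufin signals were read first. Wells were then fixed, stained with Hoechst and imaged to detect GFP inclusions and host nuclei. MICs followed the previously described calculation.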

Point of comparison: CN(C)CC1CN(c2nc(-c3ccncc3)nc3c2CCC3)CCO1 (centres unmarked) [CBK305824], “% of control remaining” value 82.093. Against it:
- CN(c1ncc(Br)cc1C(=O)NC1CCCCC1)S(C)(=O)=O [CBK076531] — lower, 77.2253
- CC(C(=O)NCCn1nc(-c2ccco2)ccc1=O)c1ccccc1 (centres unmarked) [CBK283861] — higher, 99.146
- COc1cccc(-n2cnc3cccc(N)c32)c1 [CBK022114] — lower, 78.317
- Cn1cncc1C(=O)NC1CCCC1 [CBK200256] — lower, 80.1333
- COCc1cc(=O)oc2cc(NS(C)(=O)=O)ccc12 [CBK008516] — lower, 69.1974
- Cc1ccc(C)n1-c1ccc(C(=O)OCC(=O)c2cccc([N+](=O)[O-])c2)cc1 [CBK264427] — higher, 95.527
- Cc1ccc(-c2nnc(CNC(=O)c3cccc(-c4ccc(F)cc4)c3)o2)s1 [CBK286300] — higher, 103.742
- Cc1cc(C)nc(NC(=O)C2C3C=CC(C3)C2C(=O)O)c1 (centres unmarked) [CBK058843] — lower, 70.8468
- Cc1cc(/C=C(/C#N)c2nc3ccccc3[nH]2)c(C)n1-c1ccc(S(N)(=O)=O)cc1 [CBK264769] — higher, 108.53
- COc1ccc(NS(=O)(=O)c2ccc(N3CCCC3=O)cc2)cn1 [CBK270216] — lower, 54.1367
- CN1CCN(C(=O)CSc2nnc(COc3ccccc3)o2)CC1 [CBK268970] — higher, 95.0246
- O=[N+]([O-])c1ccc(S(=O)(=O)Nc2cccc3[nH]ccc23)cc1 [CBK159550] — higher, 82.467
- Cc1cc(C(=O)N2CCn3cnnc3C2)c(C2CC2)o1 [CBK282059] — lower, 81.3146
- COc1cccc(C(=O)NCCC(=O)N2CCN(C)CC2)c1 [CBK304663] — lower, 80.5718
- CCc1noc(C)c1C(=O)NCC1CCCCN1CC (centres unmarked) [CBK282201] — higher, 100.391
- O=C(Cn1ncn2c(cc3ccsc32)c1=O)NCc1cccs1 [CBK284197] — lower, 60.884
- Cc1cc(C2CCCCCN2C(=O)c2c(Cl)cnn2C)on1 (centres unmarked) [CBK283045] — lower, 72.2999
- O=C(c1ccccc1)N1CCN(Cc2cc(=O)n3ccsc3n2)CC1 [CBK306095] — lower, 68.5761
- O=C(Nc1cc(-c2nc3ncccc3o2)ccc1Cl)c1ccc(-c2ccccc2[N+](=O)[O-])o1 [CBK264097] — higher, 114.487
- Nc1nc(N)c2cc(C(F)(F)F)ccc2n1 [CBK025934] — lower, 16.181
- C[C@@H](Nc1nccnc1-c1cccnc1)c1ccccc1 [CBK036759] — lower, 73.6873
- O=C1Nc2ccccc2C(O)(C(=O)NCc2ccccc2)N1c1ccccc1 (centres unmarked) [CBK288555] — higher, 89.8634
- N=C1NC(=O)/C(=C\c2ccc(-c3ccc(Br)cc3)o2)S1 [CBK261409] — lower, 59.1449
- O=C(O)CCCN1C(=O)C(O)=C(C(=O)c2ccccc2)C1c1ccccc1 (centres unmarked) [CBK262924] — higher, 106.331
- CCOCCN(CCOCC)c1nnc2ccc(Cl)nn12 [CBK010024] — lower, 77.0942
- Cc1cc(-c2ccccc2)nn(CCN2CCOCC2)c1=O [CBK023022C] — lower, 11.3294
- COc1cc(C(=O)N2CCC3(CC2)CC(=O)c2cc(C)c(C)cc2O3)ccc1C [CBK164202] — higher, 108.587
- COc1ccc(C2(C(=O)NCCc3ccc(O)cc3)CC2)cc1 [CBK149833] — higher, 92.436
- Cc1ccc(CN2CC[C@@H]3[C@H](C2)[C@@H](c2ccsc2)CN3C(=O)c2ccccc2F)cc1 [CBK285658] — lower, 74.0505
- c1ccc2oc(NC3=NCN(Cc4ccc5c(c4)OCO5)CN3)nc2c1 [CBK267964] — higher, 99.6273
- Cc1cc(C)n(CCCC(=O)N2CCC3(CCCO3)CC2)n1 [CBK304397] — lower, 68.9855
- CCC1CN(c2cc(CO)c(F)cn2)CC2(CCOC2)O1 (centres unmarked) [CBK304757] — lower, 46.9516
- CC(=O)Nc1cccc(OCC(=O)Nc2ccc(C)c(C)c2)c1 [CBK265429] — higher, 104.447
- COC(=O)c1sc2cc(C(F)(F)F)cnc2c1NC(=O)C1COc2ccccc2O1 (centres unmarked) [CBK115865] — higher, 90.9032
- COc1ccc2c(c1)c(C(C(=O)O)N1CCN(c3ccccn3)CC1)cn2CC(=O)O (centres unmarked) [CBK286637] — higher, 110.489
- COc1ccc(C2(C(=O)N3CCN(C)CC3)CC2)cc1 [CBK149837] — higher, 98.5277
- CC12CCC(=O)N1CCCN2 (centres unmarked) [CBK067102T] — lower, 50.9397
- Cc1cc(C)nc(SCc2c(C)c(C)c(CSc3nc(C)cc(C)n3)c(C)c2C)n1 [CBK262070] — higher, 96.9455
- O=C(NC(N1CCCCC1)C(Cl)(Cl)Cl)NC(N1CCCCC1)C(Cl)(Cl)Cl (centres unmarked) [CBK261020] — higher, 103.2
- OCCCN1CCC(Oc2cncc(OCc3cccnc3)n2)C1 (centres unmarked) [CBK084465] — higher, 82.3644
- Cc1nc(N)nc(NCC2CCN(C3CC3)C2)c1Cl (centres unmarked) [CBK306575] — lower, 54.9125
- c1ccc2c(c1)CCC(Oc1cncc(N3CCNCC3)n1)C2 (centres unmarked) [CBK172295G] — lower, 34.0774
- Cc1ccc2oc(C(=O)N3CCC(Oc4cccnc4)CC3)cc2c1 [CBK281498] — higher, 85.6952
- COCCCn1c(=O)[nH]c2ncc(-c3cccc(C(=O)NCCO)c3)nc21 [CBK065042] — higher, 99.6559
- Nc1ncc(-c2cc(C(F)(F)F)cc(C(F)(F)F)c2)nc1NCc1ccco1 [CBK063689] — higher, 126.512
- Cc1nc2c(OCc3ccc(C#N)cc3)cccn2c1N(C)Cc1cccs1 [CBK147336] — higher, 107.29
- Cc1nccn1CCC1CCN(C(=O)CCCn2ccnc2)CC1 [CBK281988] — higher, 106.227
- Cc1cc(Cl)c(S(=O)(=O)Nc2cccc(Br)c2)cc1OCC(N)=O [CBK266535] — higher, 108.407
- CCc1nnc(SCc2cccc(C(=O)O)c2)o1 [CBK286993] — higher, 112.45
- O=C(NC1CCS(=O)(=O)C1)c1c[nH]c2ccccc2c1=O (centres unmarked) [CBK304295] — lower, 52.0598
- CCn1cc(C(=O)N2CCC(C(=O)OC)CC2)c(=O)c2ccc(C)nc21 [CBK305848] — lower, 70.5171
- COc1ccc(C(C)C)cc1-c1nccnc1NCc1ccc(S(C)(=O)=O)cc1 [CBK036903] — higher, 92.6332
- COc1nc2ccn(CCC3CCOC3)c(=O)c2cc1C#N (centres unmarked) [CBK307343] — lower, 68.7513
- COCC(=O)NCC1Cc2cc(F)cc(-c3ccc(C(C)=O)s3)c2O1 (centres unmarked) [CBK307310] — lower, 70.6765
- CC1CCC(N(Cc2nnc(C3CCC3)n2C)CC2CCCO2)CC1 (centres unmarked) [CBK305540] — lower, 71.2929
- COc1ccc(/C=C(/NC(=O)c2cccc(Cl)c2)C(=O)Nc2ccccc2)cc1 [CBK263342] — lower, 46.9226
- NS(=O)(=O)c1ccc(CCNC(=O)c2cc(Br)cnc2N2CCOCC2)cc1 [CBK076225] — higher, 99.5124
- CC(=O)NCCn1cc2c(n1)[C@H]1CN(C(=O)C(C)C)C[C@H]1CC2 [CBK284571] — higher, 111.131
- COc1ccc(CNc2cc(/C=C/c3ccccc3)nc3ccnn23)cc1 [CBK037075] — higher, 100.425
- Cc1ccc2cc(CN3CCCC(N)CC3)c(N3CCOCC3)nc2c1 (centres unmarked) [CBK307693] — lower, 69.8464
- CCOc1cc(/C=C2\SC(=N)NC2=O)ccc1OS(=O)(=O)c1ccc(NC(C)=O)cc1 [CBK265243] — higher, 99.8014
- N#Cc1ccc(NCC(=O)Nc2ccn(Cc3ccncc3)n2)cc1 [CBK306241] — lower, 32.1744
- O=c1/c(=C/c2ccc(N3CCOCC3)cc2)sc2nc3cc(Br)cnc3n12 [CBK262574] — higher, 101.254
- CC(C)(C)C(=O)N1CCC(n2nc(C3CC3)ccc2=O)CC1 [CBK284242] — higher, 82.7452
- Cc1cc(C)n(CC(=O)N2CCNCC2c2cccc(Cl)c2)n1 (centres unmarked) [CBK304116] — lower, 78.5087
- CC(C)Nc1cccnc1N1CCN(C(=O)c2ccncc2)CC1 [CBK016714] — lower, 62.6245
- Cn1cc(-c2ccc(OCC3CCN(C(=O)OC(C)(C)C)CC3)cn2)cn1 [CBK173498] — higher, 99.3938
- CCC(=O)NC(Nc1cc(Cl)ccc1OC)(C(F)(F)F)C(F)(F)F [CBK261342] — higher, 103.095
- CC(=O)c1ccc(NC(=O)NNS(=O)(=O)c2ccc(F)cc2)cc1 [CBK266944] — higher, 103.812
- CC(C)(CN)CN(Cc1cccc(Cl)c1)C(=O)Nc1ccc2c(c1)OCO2 [CBK002482C] — lower, 30.6252
- CN1CCC(CNC(=O)Cn2ccc3ccc(F)cc32)(N(C)C)CC1 [CBK282569] — higher, 106.169
- COc1ccc(CCN2CCC(CNC(=O)NCc3ccccc3)CC2)cc1OC [CBK051511T] — higher, 140.381
- CCC(=O)Nc1nc2ccccc2n1CCN1CCOCC1 [CBK261477] — higher, 84.1832
- CN(C)C(=O)c1nccnc1-c1ccc(COc2ccc3c(c2)OCO3)cc1 [CBK050829] — higher, 101.863
- Cc1nc(-c2nnc3ccc(Cl)nn23)c(Br)[nH]1 [CBK028706B] — lower, 63.8812
- Cc1cc(OCc2nc(-c3ccc(NC(=O)c4ccc5c(c4)OCO5)cc3)no2)ccc1Cl [CBK266673] — higher, 90.8947
- COc1ccc(C2=NN(c3ccc([N+](=O)[O-])cc3)C(=O)/C2=C/NCc2ccc3c(c2)OCO3)cc1 [CBK264598] — higher, 115.017
- CCN(CC)C(=O)C1CCCN(C(=O)NCCc2c[nH]c3ccccc23)C1 (centres unmarked) [CBK156140] — higher, 88.2121
- CCN(CC)CCSc1nc(O)c(Cc2ccccc2)c(=O)[nH]1 [CBK072486] — lower, 77.7106
